Data published in the RNAGym collection of RNA variant scans (doi:10.7554/elife.90254).
Read counts are not given, so values of variants with three or more changes are uncertain.

B1: LINE1-full (parent)
chain: UACGUAGGUGGUUUUCCCCUGAUAGUGCUAAGGGGGCCUGGAAGUUUGGACUGGGCAGAGCUCAACACAGCGUGGCAAAGUGGCUGUGGCUAGACUGCCUCUCUGGAUUCCUCGUCACUCAGCAGGGCAUCUCUGAGAGAAAUGCC

Variants of: B1
Experiment: self-cleavage, relative activity (ratio to wild type); higher = more cleavage; in vitro, sequencing; the parent is a self-cleaving ribozyme

| Variant | self-cleavage |
| --- | --- |
| U39A A64G U85C A140G | 0.16 |
| U39A A64U G139A | 0.36 |
| U39A A65C A78G U119A | 0.03 |
| U39A A65G A141G | 0 |
| U39A A65G U119C | 0.12 |
| U39A A69G A94C | 0.08 |
| U39A A69G U100C | 2.45 |
| U39A A69G U134C | 1.4 |
| U39A A69U U87A | 0.01 |
| U39A A77G A94G | 0 |
| U39A A77G A117G A141G | 2.3 |
| U39A A78G U81C | 2.3 |
| U39A A79G C84U U143C | 0 |
| U39A A79G U85C A121U | 0 |
| U39A A79G U85C U104C A129U G139U | 0.38 |
| U39A A107G A141G | 1.69 |
| U39A A107U U112C | 1.68 |
| U39A A117U A142G | 1.5 |
| U39A A121G G135A | 1.87 |
| U39A A129U U134A | 0.62 |
| U39A A136G A138U | 1.95 |

| Variant | self-cleavage |
| --- | --- |
| U39A C51A A107G A141G | 1.34 |
| U39A G48A A65C A138G | 0.04 |
| U39A G49U U102A | 0.56 |
| U39A G53A U85A U102C A138G G144A | 0.02 |
| U39A G58A A77U C90U A142G | 0.01 |
| U39A G72A U87C U115C U143A | 0.28 |
| U39A G86A U143C | 0.1 |
| U39A U45C A50U | 1.12 |
| U39A U45C A117G | 1.58 |
| U39A U45C U100A A124G | 1.01 |
| U39A U45G G53A U104C G114A | 1.59 |
| U39A U46C C128U U132C A142G | 1.04 |
| U39A U46C G72A U73C U130C | 1.89 |
| U39A U47C A59U A77U | 0.92 |
| U39A U47G U112C | 1.71 |
| U39A U52A U132C | 1.38 |
| U39A U52C U62C | 0 |
| U39A U52G A129G A136G | 2.12 |
| U39A U73A U102C G126U A129G | 2.02 |
| U39A U73C U130C | 1.42 |
| U39A U81A A92G A138G | 0.11 |

| Variant | self-cleavage |
| --- | --- |
| U39A U81A C120U | 1.29 |
| U39A U85A A117U A141G | 0.07 |
| U39A U85A C90U U132C | 0.08 |
| U39A U85C A94G | 0.17 |
| U39A U87A U102A U132C A142G | 0.07 |
| U39A U87A U104A U143C | 0.05 |
| U39A U96C U104C | 0.13 |
| U39A U100C A121U | 1.62 |
| U39A U102C C118U U143C | 1.53 |
| U39A U109C A117G | 0.44 |
| U39A U109C C116A | 0.74 |
| U39A U112A U130C | 0 |
| U39A U119C C128A U132C U134C | 1.38 |
| U39A U119C U132C | 2.07 |
| U39C A42U U62A | 0.03 |
| U39C A43G A57U U81A U102C | 0.11 |
| U39C A43G A65G | 0 |
| U39C A50G C145A | 1.03 |
| U39C A57G A77C A79U | 0 |
| U39C A57G A79U U143C | 0.6 |
| U39C A57G U108C | 1.84 |

| Variant | self-cleavage |
| --- | --- |
| U39C A57G U115A A129G | 0.61 |
| U39C A57G U130C | 1.05 |
| U39C A59G A64C | 0 |
| U39C A59G A65G | 0 |
| U39C A59G A67G | 0.16 |
| U39C A59G A79U U119A | 0 |
| U39C A59G C145U | 0.33 |
| U39C A59G G82A A107G | 0.11 |
| U39C A59U A65G A67G G83A G127A A140U | 0.09 |
| U39C A59U C84U C95G A117G A124U A129U U132C U134C | 0.16 |
| U39C A64G U104G | 0 |
| U39C A64U U91C | 0.17 |
| U39C A64U U119C U130C | 0.36 |
| U39C A64U U132C A142G | 0.51 |
| U39C A65G C145G | 0 |
| U39C A67C A129G | 0.31 |
| U39C A67G C120U | 0.5 |
| U39C A67U A77U U87C C120U | 0.07 |
| U39C A67U U81A | 0.06 |
| U39C A69C U81A | 0.04 |
| U39C A69G A136G | 0.16 |
